This is an account of results in PubChem BioAssay AID1508624 (National Center for Advancing Translational Sciences (NCATS), 2021).

Structures are written as SMILES. Screen size: about 48,000 compounds; about 120 (0.25%) were called active. Roughly 4% stayed inconclusive and do not appear here. Calls follow the shape of the dose curve; as a rule, active = well fitted activation curve with a large enough effect; inconclusive = small, poorly fitted or top-dose-only effect, or another doubt; inactive = no such curve, though single readings can be large or run the other way. The list shows a part of the results.
Potency is read from the fitted curve at half-maximal effect.

The nature of this assay: Primary qHTS for Identification of Small Molecule Activators of Huntingtin-Antisense Promoter Activity. Also: nearly all actives have a fitted effect of over 55% in size. The note with it: HEK293 HTT-AS promoter firefly luciferase reporter, 24 h; series mostly up to 57.5 µM; activity change, positive = activation: at the top concentration. The gist of the method: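 HEK293 luciferase promoter-reporter cells (2,500/well) plated 24 h, then compounds added at up to 57.5 uM final for 24 h at 37 °C. Firefly luminescence by Dual-Glo, normalized to vehicle (0%) and zero RLU (-100%).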
On the technique in general: qHTS replaces the single test concentration by a dilution series.
For `Cc1ccccc1CNCCCSc1nnnn1C`, the “activity change, positive = activation” value was inactive: -2.21%. For the compound `COc1ccc(Cn2c(CO)cnc2SCc2ccccc2)cc1`, the “activity change, positive = activation” value was inactive: 6.42%. For `O=C(COCc1cc(-c2ccc(F)cc2)on1)Nc1cccc(C(F)(F)F)c1`, the “activity change, positive = activation” value was inactive: -6.48%.

Turning to `CCCOc1ccc(C2C(=O)N(C3CCCCC3)CC(=O)N2C2CCCCC2)cc1OC` (stereo not drawn), the “activity change, positive = activation” value was inactive: -5.17%. Turning to `COc1ccc(-c2cn3c(n2)sc2cc(C(=O)NCCCN4CCN(C)CC4)ccc23)cc1`, the “activity change, positive = activation” value was inactive: -16.4%.

Regarding `Cc1ccc(-n2c(=O)c3c(C)c(C(=O)N(C)C)sc3n(Cc3ccccc3C)c2=O)cc1C`, the “activity change, positive = activation” value is inactive: 3.34%. In the case of `Cc1cccc(Nc2nc(-c3ccccc3)nc3ccccc23)c1`, the “activity change, positive = activation” value was inactive: -29.9%. Turning to `CCOc1ccc(-c2cn3c(n2)sc2cc(C(=O)NC(C)C45CC6CC(CC(C6)C4)C5)ccc23)cc1` (stereo not drawn), the “activity change, positive = activation” value was inactive: 5.71%.

For the compound `CC1CCN(C(=O)Cn2cc(SCC(=O)NCc3ccccc3)c3ccccc32)CC1`, the “activity change, positive = activation” value is inactive: -32.4%. Take `CCOc1ccc(C(c2c(O)cc(C)n(Cc3ccco3)c2=O)N2CCN(C)CC2)cc1` (stereo not drawn): the “activity change, positive = activation” value is inactive: 5.18%.

Regarding `CCCCNc1ccc(C(=O)OCCOCCOCCOCCOCCOCCOCCOCCOCCOC)cc1`, the “activity change, positive = activation” value was inactive: -48.8%.

Regarding `CCc1nnc(NC(=O)c2nc(SCc3cccc(C)c3)ncc2Cl)s1`, the “activity change, positive = activation” value is inactive: -20.9%. As to `Cc1cc([C@@H](C)Nc2ccccc2C(=O)O)c2nc(N3CCOCC3)cc(=O)n2c1`, the “activity change, positive = activation” value was inactive: -32.1% [at 116 µM, percent change from vehicle, -100% = no light]. The same measure, in the same setting: in the case of `CCC(Sc1nnc(-c2ccc(F)cc2)c(-c2ccc(F)cc2)n1)C(=O)NC1CCCC1` (stereo not drawn) it was inactive: -13.5%; in that of `CC(Nc1oc(-c2ccc(COc3ccccc3)o2)nc1C#N)c1ccccc1` (stereo not drawn), inactive: -15.4%. For the compound `Cc1cccc(-n2ncc3c(NCCOCCO)ncnc32)c1`, the Potency is active: 3.98 µM. For the compound `COc1cccc(N2CC(NC(=O)/C=C\c3ccccc3)CC2=O)c1` (stereo not drawn), the “activity change, positive = activation” value was inactive: -3.46%. Regarding `CCC(=O)N1CCc2cc(S(=O)(=O)CCC(=O)Nc3cc(Cl)ccc3OC)ccc21`, the “activity change, positive = activation” value was inactive: -8.02%. Still for that read-out and setting: the result for `O=C(CSc1nc2c([nH]c3ccccc32)c(=O)n1-c1ccccc1F)Nc1cccc(Cl)c1` reads inactive: -25.3%; that for `CC(C)CC(=O)NC1CC(=O)N(c2ccc3c(c2)OCCO3)C1` (stereo not drawn), inactive: -16.8%. As to `COc1cc2nccc(Oc3ccc(NC(=O)C4(C(=O)Nc5ccc(F)cc5)CC4)cc3)c2cc1OC`, the “activity change, positive = activation” value is inactive: -26%. Take `CN(Cc1ccccc1)c1nc2c(S(=O)(=O)c3cccc(Cl)c3)nnn2c2ccsc12`: the “activity change, positive = activation” value is inactive: -19.4%. On the same count and under the same terms, the result for `CCCCNC(=O)CSc1nc2cc3c(cc2c(=O)n1CCCC(=O)NCc1ccc(OC)cc1)OCO3` reads inactive: -11.2%; that for `COC(=O)c1ccccc1NC(=O)NCc1ccc2c(c1)CCN2C(=O)c1ccccc1`, inactive: -31.6%; that for `O=C1CN(C(=O)c2ccc(S(=O)(=O)N3CCCC3)cc2)C(c2ccc(F)cc2)c2cc(Br)ccc2N1` (stereo not drawn), inactive: -37.2%. For `CCC1CN(S(=O)(=O)c2cc(-c3cc(C)no3)ccc2OC)c2cc(Cl)ccc2O1` (stereo not drawn), the “activity change, positive = activation” value is inactive: -34.5%.

Turning to `Cc1ccc2c(c1)N(C(=O)N1CCC(C(=O)Nc3cccc(F)c3)CC1)CCO2`, the “activity change, positive = activation” value is inactive: -27.2%. `O=S(=O)(NCCc1csc2nc(-c3ccc(Cl)cc3)nn12)c1cccs1`: the “activity change, positive = activation” value is inactive: -38.8%. The same measure, in the same setting: in the case of `COc1cc(Nc2nc3c(S(=O)(=O)c4ccccc4)nnn3c3ccc(Cl)cc23)cc(OC)c1` it was inactive: 1.24%; in that of `O=c1c2oc3ccccc3c2n(Cc2ccccc2Cl)c(=O)n1Cc1ccc2c(c1)OCO2`, inactive: -10.6%. Take `CCc1ccccc1NC(=O)CN(c1cc(C(F)(F)F)ccc1Cl)S(=O)(=O)c1ccccc1`: the “activity change, positive = activation” value is inactive: -49.7%. In the case of `COc1ccccc1Nc1cc(C(=O)NCCCN(C)C2CCCCC2)c2ccccc2n1`, the “activity change, positive = activation” value is inactive: -37.5%. With `Cc1ccc2c(c1)N(C(=O)CCC(=O)NCc1ccccc1F)CC(C)O2` (stereo not drawn), the “activity change, positive = activation” value is inactive: -13.5%. Regarding `O=C(COc1ccc(Cl)cc1)OCc1cc(=O)n2nc(C3CCCCC3)sc2n1`, the “activity change, positive = activation” value is inactive: 7.18%. Take `CCOC(=O)c1ccc2c(c1)N(Cc1cc(C)ccc1C)C(=O)c1ccccc1S2(=O)=O`: the “activity change, positive = activation” value was inactive: -28.3%. Consider `Cc1cc(C)cc(NC(=O)[C@H]2O[C@@H]3OC(C)(C)O[C@@H]3[C@H]3OC(C)(C)O[C@H]32)c1`, for which the “activity change, positive = activation” value was inactive: -5.88%. `CCc1ccccc1Nc1sc(C(=O)c2ccccc2)c(N)c1S(=O)(=O)c1ccccc1`: the “activity change, positive = activation” value was inactive: -28.7%. As for `CCCCN(CC)C(=O)CSc1nc2c(sc3ccccc32)c(=O)n1CCc1ccccc1`, the “activity change, positive = activation” value is inactive: -8.65%.

Consider `CN(C)C(=O)c1ccc(S(=O)(=O)NCc2ccc(Cl)cc2)s1`, for which the “activity change, positive = activation” value was inactive: -23.2%. Regarding `CCc1ccccc1NC(=O)Cn1c(=O)n(-c2ccc(C)cc2)c(=O)c2cc(OC)c(OC)cc21`, the “activity change, positive = activation” value was inactive: -6.87%.

Turning to `O=C(O)/C=C/c1ccc(Cn2ccnc2)cc1`, the “activity change, positive = activation” value is inactive: -7.77%. The same measure, in the same setting: the result for `CCN(CCCNC(=O)Cn1ncc2c([nH]c3ccccc32)c1=O)c1cccc(C)c1` reads inactive: -20.1%; that for `O=C(NO)c1ccccc1`, inactive: -16.5% [at 116 µM, percent change from vehicle, -100% = no light]; that for `COC(=O)c1scc(-c2ccc(C)cc2)c1S(=O)(=O)N1CCN(c2cccc(Cl)c2)CC1`, inactive: -23.9%. Turning to `CC(=O)N1CCc2c(sc3c2c(=O)n(-c2ccccc2C)c(=O)n3CC(=O)Nc2ccccc2)C1`, the “activity change, positive = activation” value is inactive: -16.4%. As for `Cc1ccc(S(=O)(=O)c2nc(-c3cccs3)oc2N2CCC(C)CC2)cc1`, the “activity change, positive = activation” value is inactive: -19.8%. As to `Cn1c(=O)sc2cc(NS(=O)(=O)c3ccc(C(C)(C)C)cc3)ccc21`, the “activity change, positive = activation” value was inactive: 16.7%. Regarding `Cc1c(C(=O)Nc2c(F)cccc2F)sc2ncn(Cc3ccccc3F)c(=O)c12`, the “activity change, positive = activation” value was inactive: -20.4%.
